Measurements from the supplement of paper PMC9446081.
In all, about 39,000 compounds went through this assay and about 220 (0.56%) showed activity. This is one part of the list.
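Note: static incubation at 37 °C against the wild-type strain, values averaged over two biological replicates.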

The compounds below were run on Escherichia coli K-12 BW25113 (assay: relative growth (OD600 normalised to plate interquartile mean) (fraction); higher = less growth inhibition, active = 0.2 or less). Conditions: 50 µM; LB; incubation time: overnight (16-24 h).
For `CC[C@@](N)(C(=O)O)c1ccccc1`, the relative growth was inactive: 1.01.
In the case of `COc1ccc(S(=O)(=O)N(C)C[C@@H]2OCCCC[C@H](C)Oc3ccc(NC(=O)Nc4ccccc4)cc3C(=O)N([C@@H](C)CO)C[C@H]2C)cc1`, the relative growth is reported as inactive: 1.03.
For `COc1ccc(C(=O)Nc2ccc(CN3C(=O)[C@@]4(O[C@@H](CC(=O)N5CCC[C@H]5CO)[C@H]([Si](C)(C)c5ccc(OC)cc5)[C@H]4C)c4ccccc43)cc2)cc1`, the relative growth was inactive: 0.998.
In the case of `CCC(C=CC(C)C1CCC2C3CCC4=CC(=O)CCC4(C)C3CCC12C)C(C)C` (stereo not given), the relative growth is reported as inactive: 0.879.
`C[C@@H]1CCCCO[C@@H](CN(C)Cc2ccccc2)[C@H](C)CN([C@H](C)CO)C(=O)c2cc(NC(=O)CCC(F)(F)F)ccc2O1` was tested, and the relative growth was inactive: 1.02.
With `Nc1ncnc2c1ncn2[C@H]1O[C@@H](COP(=O)(O)OP(=O)(O)OP(=O)(O)O)[C@@H](O)[C@@H]1O` the relative growth was inactive: 0.997.
With `CNc1[nH]cnc(=S)c1N` the relative growth was inactive: 0.97.
`Cc1noc(C)c1S(=O)(=O)Nc1ccc2c(c1)CC(=O)N([C@@H](C)CO)C[C@@H](C)[C@@H](CN(C)CC1CC1)O2` was tested, and the relative growth was inactive: 0.986.
`C=CC[C@@H](CC(=O)N(CCO)Cc1ccccc1)C(=O)N[C@H](COC(=O)[C@H](CC=C)NC(=O)OCC1c2ccccc2-c2ccccc21)c1ccccc1` was tested, and the relative growth was inactive: 1.01.
With `C[C@@H]1CN([C@H](C)CO)C(=O)Cc2cc(NC(=O)CCN3CCOCC3)ccc2O[C@H]1CN(C)S(=O)(=O)c1ccccc1` the relative growth was inactive: 1.
In the case of `COCC(=O)Nc1ccc2c(c1)OC[C@@H](C)N(Cc1ccccc1OC)C[C@@H](C)[C@@H](OC)CN(C)C2=O`, the relative growth is reported as inactive: 1.02.
With `Cc1noc(C)c1NC(=O)N(C)C[C@H]1Oc2ccc(NC(=O)Nc3ccc(C(F)(F)F)cc3)cc2CC(=O)N([C@@H](C)CO)C[C@@H]1C` the relative growth was inactive: 0.973.
For `C[C@@H]1CCCCO[C@@H](CN(C)C(=O)C2CCCCC2)[C@H](C)CN([C@H](C)CO)C(=O)c2cc(NS(=O)(=O)c3cccs3)ccc2O1`, the relative growth was inactive: 0.973.
`CNC(=O)C(=O)Nc1cc(Cl)ccc1C#N` was tested, and the relative growth was inactive: 0.993.
In the case of `CN1C(CC(=O)c2ccccc2)CCCC1CC(O)c1ccccc1.Cl` (stereo not given), the relative growth is reported as inactive: 1.05.
With `C[C@@H]1CCCCO[C@@H](CN(C)S(=O)(=O)c2ccccc2)[C@H](C)CN([C@H](C)CO)C(=O)c2cc(NC(=O)c3ccccc3)ccc2O1` the relative growth was inactive: 1.01.
With `C[C@H]1CN([C@@H](C)CO)C(=O)c2cccc(NC(=O)c3ccc(-c4nccs4)cc3)c2O[C@@H]1CN(C)C(=O)Nc1ccc(C(F)(F)F)cc1` the relative growth was inactive: 0.967.
In the case of `C[C@@H]1CCCCO[C@@H](CN(C)Cc2ccc(C(=O)Nc3ccccc3N)cc2)[C@@H](C)CN([C@H](C)CO)C(=O)c2cc(NC(=O)c3ccncc3)ccc2O1`, the relative growth is reported as inactive: 0.977.
With `CO[C@H]1C[C@@H](C[C@@H](C)[C@H]2CC(=O)[C@@H](C)/C=C(\C)[C@@H](O)[C@@H](OC)C(=O)[C@@H](C)C[C@@H](C)/C=C/C=C/C=C(\C)[C@H](OC)C[C@H]3CC[C@@H](C)[C@@](O)(O3)C(=O)C(=O)N3CCCC[C@@H]3C(=O)O2)CC[C@@H]1OC(=O)C(C)(CO)CO` the relative growth was inactive: 0.982.
For `C[C@H]1CCCCO[C@H](CN(C)Cc2ccccc2)[C@@H](C)CN([C@@H](C)CO)C(=O)c2cc(NC(=O)Nc3ccccc3)ccc2O1`, the relative growth was inactive: 1.01.
`C[C@@H]1CN([C@H](C)CO)C(=O)c2cc(/C=C/c3ccccc3)cnc2O[C@@H]1CN(C)C(=O)c1cnccn1` was tested, and the relative growth was inactive: 1.01.
With `O=C(CN1CCOCC1)NCC[C@H]1CC[C@H](NC(=O)Cc2ccccn2)[C@H](CO)O1` the relative growth was inactive: 1.
With `C[C@@H]1CCCCO[C@H](CN(C)Cc2ccc(C(=O)O)cc2)[C@H](C)CN([C@H](C)CO)C(=O)c2cc(NC(=O)Nc3ccc(F)cc3)ccc2O1` the relative growth was inactive: 0.995.
`CO[C@@H]1CN(C)C(=O)c2cc(NC(=O)NC(C)C)ccc2OC[C@H](C)N(Cc2ccc(-c3ccccn3)cc2)C[C@H]1C` was tested, and the relative growth was inactive: 1.04.
`CC(=O)n1cc([C@@H]2C=C(C(=O)N3CCN(C)CC3)O[C@H](OCc3ccc(CO)cc3)C2)c2ccccc21` was tested, and the relative growth was inactive: 0.987.
With `CCn1nnc2c(SCC(N)=O)ncnc21` the relative growth was inactive: 0.969.
In the case of `C[C@H]1CCCCO[C@@H](CN(C)Cc2ccncc2)[C@@H](C)CN([C@@H](C)CO)C(=O)c2cc(NS(C)(=O)=O)ccc2O1`, the relative growth is reported as inactive: 0.98.
`NS(=O)(=O)c1ccc(NC(=S)NCCN2CCOCC2)cc1` was tested, and the relative growth was inactive: 0.99.
For `CC(C)NC(=O)Nc1ccc2c(c1)C(=O)N([C@H](C)CO)C[C@H](C)[C@@H](CN(C)Cc1ccc(C(=O)O)cc1)O2`, the relative growth was inactive: 0.998.
With `C[C@@H]1CN([C@@H](C)CO)C(=O)c2cc(NS(=O)(=O)c3ccccc3)ccc2O[C@@H]1CN(C)S(=O)(=O)c1ccccc1` the relative growth was inactive: 0.985.
With `CCOC(=O)[N-]c1c[n+](N2CCOCC2)no1` the relative growth was inactive: 0.938.
For `C[C@@H]1CN([C@H](C)CO)C(=O)c2cc(NC(=O)c3ccccc3)ccc2O[C@@H](C)CCCCO[C@@H]1CN(C)C(=O)Cc1ccccc1`, the relative growth was inactive: 1.03.
With `CO[C@H]1[C@H](O)[C@@H](O)[C@@H](O)[C@H](O)[C@@H]1O` the relative growth was inactive: 1.
`C[C@H](CO)N1C[C@H](C)[C@@H](CN(C)S(=O)(=O)c2ccc(F)cc2)Oc2ccc(NC(=O)CCN3CCOCC3)cc2CC1=O` was tested, and the relative growth was inactive: 1.02.
`C=CCOC(=O)[C@H]1[C@@H]2C(=O)O[C@@H](c3ccccc3)[C@@H](c3ccccc3)N2[C@@H](c2ccc(OCCOC(=O)[C@H]3C[C@H]4C(=O)N[C@@H](CC(C)C)C(=O)N4[C@H]3c3ccc(O)cc3)cc2)[C@]12C(=O)Nc1ccccc12` was tested, and the relative growth was inactive: 1.03.
`C[C@H]1CN([C@@H](C)CO)C(=O)c2cccc(NS(C)(=O)=O)c2O[C@@H]1CN(C)C(=O)Nc1ccc(C(F)(F)F)cc1` was tested, and the relative growth was inactive: 0.884.
For `C/C(=N\N)c1nnn(-c2nonc2N)c1C`, the relative growth was inactive: 0.991.
With `O=C(C[C@H]1C=C[C@@H](NC(=O)Cc2ccccn2)[C@H](CO)O1)NCCCN1CCOCC1` the relative growth was inactive: 0.99.
In the case of `CCN1[C@@H]2Cn3c(ccc(-c4ccncc4)c3=O)[C@H]1[C@@H](C(=O)NCCc1cn(C)cn1)[C@@H]2CO`, the relative growth is reported as inactive: 0.976.
In the case of `Cc1noc(C)c1NC(=O)N(C)C[C@H]1Oc2ccc(NC(=O)CCN3CCOCC3)cc2C(=O)N([C@@H](C)CO)C[C@@H]1C`, the relative growth is reported as inactive: 1.02.
For `CCCn1c(=O)c(C)cn2nc(N)nc12`, the relative growth was inactive: 1.01.
In the case of `Cc1noc(C)c1NC(=O)N(C)C[C@H]1OCCCC[C@H](C)Oc2ccc(NS(=O)(=O)c3ccccc3)cc2C(=O)N([C@@H](C)CO)C[C@H]1C`, the relative growth is reported as inactive: 1.01.
`CCS(=O)(=O)N1C[C@]2(CCN(CC2)C(=O)NC2CCCC2)c2c(n(c3cc(ccc23)OC)C)[C@@H]1CO` was tested, and the relative growth was inactive: 0.998.
`CN1C(=O)C[C@@H](C(=O)N[C@@H](Cc2cnc[nH]2)C(=O)N2CCC[C@H]2C(N)=O)NC1=O` was tested, and the relative growth was inactive: 0.998.
`COc1ccc(NC(=O)Nc2ccc3c(c2)C(=O)N([C@H](C)CO)C[C@@H](C)[C@H](CN(C)S(=O)(=O)c2ccc(Cl)cc2)OCCCC[C@H](C)O3)cc1` was tested, and the relative growth was inactive: 1.01.
In the case of `COC1=C(CC=C(C)C)C(=O)c2ccccc2C1=O`, the relative growth is reported as inactive: 0.908.
`Cc1ccc(S(=O)(=O)Nc2ccc3c(c2)CC(=O)N([C@H](C)CO)C[C@@H](C)[C@H](CN(C)Cc2ccc(Oc4ccccc4)cc2)O3)cc1` was tested, and the relative growth was inactive: 0.994.
`C[C@H](CO)N1C[C@H](C)[C@@H](CN(C)C(=O)Nc2ccccc2)Oc2c(NC(=O)c3cnccn3)cccc2C1=O` was tested, and the relative growth was inactive: 1.03.
In the case of `Cc1ccc(S(=O)(=O)Nc2ccc3c(c2)CC(=O)N([C@H](C)CO)C[C@@H](C)[C@H](CN(C)C(=O)Nc2cccc4ccccc24)O3)cc1`, the relative growth is reported as inactive: 1.01.
For `CC(C)CC#Cc1ccc2c(c1)O[C@H](CN(C)C(=O)C1CCOCC1)[C@H](C)CN([C@@H](C)CO)S2(=O)=O`, the relative growth was inactive: 0.998.
`C[C@H]1CN([C@@H](C)CO)S(=O)(=O)c2ccc(C#CC3CC3)cc2O[C@H]1CN(C)Cc1cccc(F)c1` was tested, and the relative growth was inactive: 1.01.
With `CCCCOCCOc1ccc(-c2ccc3c(c2)/C=C(/C(=O)Nc2ccc([S@@](=O)Cc4cncn4CCC)cc2)CCCN3CC(C)C)cc1` the relative growth was inactive: 0.989.
For `CCc1nc2ccc(C(=O)Nc3ccc4c(c3)OCC(=O)N4)cn2c1N(CC)Cc1cccc(Br)c1`, the relative growth was inactive: 1.01.
For `CC(C)NC(=O)N(C)C[C@H]1Oc2c(NC(=O)NC3CCCCC3)cccc2C(=O)N([C@@H](C)CO)C[C@@H]1C`, the relative growth was inactive: 1.
`C[C@H](CO)N1C[C@H](C)[C@H](CN(C)Cc2ccc(C(=O)O)cc2)Oc2ccc(NC(=O)Nc3ccc(C(F)(F)F)cc3)cc2CC1=O` was tested, and the relative growth was inactive: 0.977.
`C[C@@H]1CN([C@@H](C)CO)C(=O)c2cccc(NC(=O)C3CC3)c2O[C@@H]1CN(C)S(=O)(=O)c1ccc(Cl)cc1` was tested, and the relative growth was inactive: 1.01.
For `CC(C)NC(=O)N(C)C[C@@H]1Oc2ncc(-c3ccc(C(=O)N(C)C)cc3)cc2C(=O)N([C@@H](C)CO)C[C@H]1C`, the relative growth was inactive: 1.01.
For `C[C@@H]1CCCCO[C@@H](CN(C)S(=O)(=O)c2ccc(F)cc2)[C@H](C)CN([C@@H](C)CO)C(=O)c2cc(NC(=O)Nc3ccc4c(c3)OCO4)ccc2O1`, the relative growth was inactive: 1.04.
In the case of `CN1CCN(C(=O)[C@@H]2[C@@H](C(=O)O)[C@H]3CC[C@H]2O3)CC1`, the relative growth is reported as inactive: 0.99.
For `C[C@@H]1CN([C@H](C)CO)S(=O)(=O)c2ccc(-c3ccncc3)cc2O[C@@H]1CN(C)S(=O)(=O)c1ccccc1F`, the relative growth was inactive: 1.02.
